Data from paper PMC12136788.
The list shows a part of the results.

T1: UNK ZnF1-3 (human, UniProt Q9C0B0 31-174)
T1 sequence: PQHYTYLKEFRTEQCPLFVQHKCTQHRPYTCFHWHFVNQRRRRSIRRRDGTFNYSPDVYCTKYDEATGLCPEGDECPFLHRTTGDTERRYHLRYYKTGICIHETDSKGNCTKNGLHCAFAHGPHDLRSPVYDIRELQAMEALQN

B1: chr5:151611259:151611260:+_ENSMUSG00000034021_ENSMUST00000016569|mus_hu|FALSE|FALSE (ssRNA)
RNA: GGGAGUUCUACAGUCCGACGAUCCAUUUUCUGAACAUAACGUUCAAGAGGAAAUAUCUAUACACAAUAACAUUCUAGACUAUUAAAAACUCAUUCAAAUUACAGAAUUUUAUUGAUACAGUAGAUUAAUAAAAACUGAAAGGACAACAGAGGAUUGAGCAUCA
B2: chr11:85347198:85347199:+_ENSG00000171204_ENST00000358867|hu_mus|FALSE|FALSE (ssRNA)
RNA: GGGAGUUCUACAGUCCGACGAUCCCUUGCACGUGGUUUUUCACAUAUAUUGUAAUGAUGUAAGCCAGUAAAAGCUCCCAUUACUAUCUGAAAGAACAGAGGAAUAGCCAUUGCUUUCAUCCCAGUUUGACAAAGGAGCAACCACAACAGAGGAUUGAGCAUCA
B3: chr11:86516163:86516164:-_ENSMUSG00000047126_ENSMUST00000103186|mus_mus|FALSE|FALSE (ssRNA)
RNA: GGGAGUUCUACAGUCCGACGAUCAAGGCUGUCUUUCUUGCACAACUCUACACUCUGUUUCCAGCGAUUGUUGCCUUUGAAGAGAUAAGCAGCAAUUCUUCUGAAUUCAAUGAGUUCGUGUUUUUCCAAACGCUGAGCAAGUGACAACAGAGGAUUGAGCAUCA
B4: chr17:20919178:20919179:-_ENSG00000124422_ENST00000537526|hu_hu|motif|central (ssRNA)
RNA: GGGAGUUCUACAGUCCGACGAUCGAGCACGUCCAGGGCCGCGAUGAGGAACUCGUGGGCGUCCUGCUGCUCGUAGCCUGCGGGGUGCCUCGCGUGGGUCCACACCAGGUGCAGCAACUUAUACGGGAUGUGAGGGGACCGGUGCAACAGAGGAUUGAGCAUCA
B5: chr7:44244176:44244177:+_ENSG00000106636_ENST00000223369|hu_mus|hu_hu_hu_mus_False|48_78 (ssRNA)
RNA: GGGAGUUCUACAGUCCGACGAUCACUGUCGCUCCGGACGUAGACAUGGCAAAGAUAGUCUUGUUCUUUGACAGAAGCUCUGCUGCCUUUCGAUGAGCGUUCCACAAUCAGUUGACUUGUAAAGGUCAUGAAUUCCUGCACACUCAACAGAGGAUUGAGCAUCA
B6: chr6:41757443:41757444:+_ENSG00000214736_ENST00000398881|hu_mus|hu_hu_hu_mus_False|68_88 (ssRNA)
RNA: GGGAGUUCUACAGUCCGACGAUCGAACCGUGCAGAGGCAACAUCUCGGAAUUCUGCGGGGGAUGGGGGAACAAAAGGGGGGGGUUCAGGCAAGGAGAGGGAGUCAACUUCAGCUGCCACUCAGGUAGGAUCUUGUGGUCACAGCAACAGAGGAUUGAGCAUCA

target: T1, UNK ZnF1-3; assay: nsRBNS (natural sequence RNA bind-n-seq); RBNS binding buffer (assumed for nsRBNS): 25 mM Tris pH 7.5, 150 mM KCl, 3 mM MgCl2, 0.01% Triton X-100, 500 ug/ml BSA, 20 U/ml SUPERase-In, 4 C; UNK is unkempt and MSI1 is Musashi-1; names of the RNAs are library labels; protein concentration not given here; high values mean tight binding

Question: How did the binding signal turn out when B1 was run?
Answer: 0.724 enrichment R

Question: How did the binding signal turn out when B2 was run?
Answer: 2.02 enrichment R

Question: B3 was tested. Which binding signal did it give?
Answer: 0.59 enrichment R

Question: How did the binding signal turn out when B4 was run?
Answer: 0.947 enrichment R

Question: For B5, which binding signal is on record?
Answer: 0.663 enrichment R

Question: B6 was tested. Which binding signal did it give?
Answer: 2.93 enrichment R
